Results taken from article PMC4336329 (PLoS ONE, 2015).
Out of some 310,000 compounds screened, about 2,200 (0.71%) showed an effect of 50% or more. Effects have a minus sign here. The list shows a part of the results.

molecular target: human ether-à-go-go-related gene (hERG) potassium channel (human, UniProt Q12809); experiment: primary screen, population patch clamp on CHO cells stably expressing hERG
Sequence (Q12809 whole entry, looked up): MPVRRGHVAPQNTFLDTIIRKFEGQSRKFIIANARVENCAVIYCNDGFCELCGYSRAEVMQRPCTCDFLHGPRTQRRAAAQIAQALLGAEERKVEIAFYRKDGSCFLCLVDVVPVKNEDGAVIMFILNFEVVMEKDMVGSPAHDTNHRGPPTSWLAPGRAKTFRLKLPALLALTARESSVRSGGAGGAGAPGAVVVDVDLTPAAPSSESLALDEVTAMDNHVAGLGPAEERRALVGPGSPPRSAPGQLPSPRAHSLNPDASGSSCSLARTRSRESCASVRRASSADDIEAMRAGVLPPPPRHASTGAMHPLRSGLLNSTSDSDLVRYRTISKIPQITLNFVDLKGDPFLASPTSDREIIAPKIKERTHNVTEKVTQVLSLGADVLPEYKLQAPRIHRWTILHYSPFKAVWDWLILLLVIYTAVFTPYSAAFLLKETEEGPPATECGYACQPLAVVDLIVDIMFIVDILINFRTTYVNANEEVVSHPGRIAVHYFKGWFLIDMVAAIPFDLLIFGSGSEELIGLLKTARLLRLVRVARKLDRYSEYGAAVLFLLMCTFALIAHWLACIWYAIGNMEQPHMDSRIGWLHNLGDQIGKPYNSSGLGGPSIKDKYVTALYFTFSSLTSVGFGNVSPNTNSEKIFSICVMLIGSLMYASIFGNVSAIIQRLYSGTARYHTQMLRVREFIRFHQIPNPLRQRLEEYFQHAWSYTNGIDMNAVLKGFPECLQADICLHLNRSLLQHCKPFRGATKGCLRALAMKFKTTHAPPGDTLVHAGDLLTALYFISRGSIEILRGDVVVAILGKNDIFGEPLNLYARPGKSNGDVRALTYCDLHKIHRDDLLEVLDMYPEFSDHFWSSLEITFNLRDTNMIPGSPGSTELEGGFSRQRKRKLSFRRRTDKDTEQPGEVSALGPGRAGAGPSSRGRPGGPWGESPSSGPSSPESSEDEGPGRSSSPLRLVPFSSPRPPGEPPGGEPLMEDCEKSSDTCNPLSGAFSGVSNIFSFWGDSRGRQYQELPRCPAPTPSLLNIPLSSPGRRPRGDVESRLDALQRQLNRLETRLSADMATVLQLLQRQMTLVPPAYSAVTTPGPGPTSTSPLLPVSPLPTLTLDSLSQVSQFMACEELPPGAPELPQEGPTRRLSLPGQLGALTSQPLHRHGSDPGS

Row | Structure (SMILES) | hERG current change (%, negative = inhibition) at 1uM
1 | COC(=O)c1sccc1NC(=O)CN1CCN(c2ccc(F)cc2)CC1 | 8.91%
2 | CCC1Sc2ccc(S(=O)(=O)CCC(=O)Nc3cc(C)ccn3)cc2NC1=O (centres unmarked) | 6.4%
3 | COc1ccc(CN2CCc3ccc(NC(=O)CCc4ccccc4OC)cc3C2)c(O)c1 | 12.2%
4 | O=C(Nc1ccccc1)c1nc[nH]c1C(=O)NCc1ccccc1 | 8.05%
5 | O=C(O)/C=C/C(=O)NCc1ccccn1 | 20.1%
6 | CC(=O)N1CCc2cc(Br)cc(S(=O)(=O)N3CCN(c4ccccn4)CC3)c21 | 14.7%
7 | COc1ccc2oc(C(=O)OCC(=O)N3CC(C)CC(C)C3)c(C)c2c1 (centres unmarked) | -8.41%
8 | C=CCn1c(CCCOc2ccc(Cl)cc2Cl)nnc1SCC(=O)Nc1nccs1 | 7.35%
9 | CC12c3ccccc3C(c3ccccc31)C1C(=O)N(c3cccnc3)C(=O)C12 (centres unmarked) | 3.46%
10 | N#Cc1cc(NC(=O)c2ccc(F)cc2)c(=O)n2c1[nH]c1ccccc12 | 13.4%
11 | Cc1cccc(OCc2nc3ccccc3c(=O)n2N)c1 | 13.7%
12 | NC(=O)CSc1cn(Cc2ccc(F)cc2)c2ccccc12 | 6.56%
13 | O=C(NNc1ccccn1)C(=O)NNS(=O)(=O)c1ccc(Cl)cc1 | 12.8%
14 | CCOC(=O)c1sc(NC(=O)CSc2nc(O)c(Cc3ccccc3)c(=O)[nH]2)nc1C | 4.92%
15 | COc1ccc(OC)c(C2CC(=O)Nc3c2c(=O)[nH]c2ncnn32)c1 (centres unmarked) | 8.28%
16 | C/C=C/C1=CC(=O)C[C@H](c2ccc3c(c2)OCO3)C1 | 13.4%
17 | CC(C(=O)N1CCCC1)N(c1ccccc1)S(C)(=O)=O (centres unmarked) | 20.3%
18 | Nn1c(SCC(=O)Nc2cccc(C(F)(F)F)c2)nncc1=O | 8.8%
19 | C=C(C)C(=O)Nc1cccc(C2=NOC3(C2)C[C@H](C(N)=O)N(C(=O)CC#N)C3)c1 (some centres unmarked) | 6.59%
20 | CCn1c(-c2ccc(N(C)C)cc2)nc2ccccc21 | -3.72%
21 | COc1cc2c(cc1OC)C(c1ccccc1[N+](=O)[O-])N(C(C)=O)CC2 (centres unmarked) | 16.8%
22 | CCOc1ccc(N(CC(=O)NC2CCCCC2)C(=O)CCCC(=O)Nc2ccccn2)cc1 | 14.3%

Row | Structure (SMILES) | hERG current change (%, negative = inhibition) at 1uM
23 | CC(Oc1ccc(Br)cc1)C(=O)Nn1c(=S)[nH]c2ncccc2c1=O (centres unmarked) | 6.01%
24 | NC1=NC(c2ccc(Cl)cc2)N(c2ccc(S(N)(=O)=O)cc2)C(N)=N1 (centres unmarked) | 18.7%
25 | COCCNC(=O)C1CC2Cn3c(nc4cc5ccccc5cc43)C2N1C (centres unmarked) | 9.89%
26 | Nc1nnn(CC(=O)N/N=C/c2cn[nH]c2-c2ccccc2)n1 | 13.9%
27 | O=Cc1ccc(OCCCOc2cccc3cccnc23)cc1 | 11.3%
28 | CCOC(=O)C[C@H]1c2cc(F)ccc2S(=O)(=O)N1c1cccc(OC)c1 | 10.8%
29 | COc1cc(=O)[nH]c(SCC(=O)Nc2ccc3ccccc3c2)n1 | 15.4%
30 | CCOC(=O)C(CC(=O)Nc1nc(C(C)=O)c(C)s1)C(C)c1ccccc1 (centres unmarked) | 5.21%
31 | CC(Sc1nnc(-c2ccccc2F)n1C1CC1)C(=O)N1CCCC1 (centres unmarked) | 14.9%
32 | CC1=C2C(=O)C3C(CC=C4CC(O)CCC43C)C2CCC12OC1CC(C)CNC1C2C (centres unmarked) | 17.8%
33 | CN1C(=O)c2ccc(NC(=O)C3CCCCC3)cc2C1=O | 0.056%
34 | CC(O)Cc1nsc(NC(=O)c2ccc(Br)o2)n1 (centres unmarked) | -17.8%
35 | COc1ccc2cc(C(=O)C3CCCN(Cc4cnc(N5CCOCC5)s4)C3)ccc2c1 (centres unmarked) | 24.7%
36 | C/C(=N\NC(=O)c1ccccc1N)c1ccc(NC(=O)Cc2ccccc2)cc1 | 13.3%
37 | O=C(Nc1ccc(-c2cscn2)cc1)C1CCCN(Cc2ccc(CO)o2)C1 (centres unmarked) | 2.28%
38 | COc1ccc(-n2[nH]c(C)cc2=O)cc1 | 26.5%
39 | Cl.Cn1c(=N)n(CC(O)c2cccc3ccccc23)c2ccccc21 (centres unmarked) | -40%
40 | Cc1ccc(NC(=O)C(OC(=O)c2ccc(O)cc2)c2ccccc2)cc1Cl (centres unmarked) | -0.323%
41 | O=C(O)/C=C/C(=O)NC1CCC(CC2CCC(NC(=O)/C=C/C(=O)O)CC2)CC1 (centres unmarked) | 20.8%
42 | COCCN1C2=C(C(=O)CC(C)(C)C2)C(c2ccc(O)c(OC)c2)C2=C1CC(C)(C)CC2=O | 2.34%
43 | Cc1oc(-c2ccccc2F)nc1CS(=O)(=O)CC(=O)N1CCCCCC1 | 9.21%
44 | COc1cccc(NC(=O)CSc2nnc(-c3ccoc3C)n2-c2ccccc2)c1 | -17.5%
